Laboratory results: the supplement of paper PMC11417369
The list shows a part of the results.

Tested on: PfSIP2 AP2 domain 1 (GST-tagged)
Assay: gcPBM binding intensity (ln(normalized median fluorescence intensity)); higher = stronger DNA binding
Procedure, shortened: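 After 1 h on an Agilent 4 × 180k array of primer-extended double-stranded 36-bp intergenic genomic probes and negative controls, bound GST-tagged P. falciparum DNA-binding domains were detected with Alexa488 anti-GST antibody and scanned at 488 nm. The domains had been expressed in E. coli, and binding took place in 1× PBS with 1% milk, 0.2 mg/ml BSA, 0.5% salmon testes DNA and 0.03% Triton X-100. Binding intensity is the highest Masliner-normalised natural-log median intensity across replicate spots of either probe orientation.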

Sequence | gcPBM binding intensity (ln)
AAAAAAAAAAAAAAGGAACACACAAGTAACAATAAA [CACACA_site8792] | 7.09
AATTATACTTCCTTCACACAGTTACATCATATATTA [CACACA_site5942] | 7.09
TTCAAATTGTTTATATGTACTTATAAAAATTGTCTG [XGTACX_site977] | 7.1
AGACCTTTAATTTGTGTGCACATAATTAGTGTACAT [GTGCAC_site9434] | 8.49
ATTAAAAAAAAAAAAAGTACTTATAATTATACTCGT [XGTACX_site4852] | 7.05
TTATATTATATATATGTGCACATTTTTAAACTTGGA | 8.77
ACAAATAAAAATATTACACACACTATTATATTGATA [CACACA_site1494] | 7.05
GGAAGATGAAAAATAAAGCATGTGCTGTACAAACGA [CACACA_negctrl_site1625] | 6.82
AAATATTTATATGTTACACACTGTTGATAATTTTCT [CACACA_site1347] | 6.68
AAAAATATTTTGGTTTGTACATATATTTTTACAATA [XGTACX_site8691] | 7.02
ACTTATTTCGATATGTGTACTTAATATATATATTTA [XGTACX_site6616] | 7.24
ATTTTTGTAATTATTTGTACACATTTATTTATGTGT [XGTACX_site1864] | 7.03
AAATATATGAATAAATGTACGAAATGAATGGATGAA [XGTACX_site7108] | 7.19
AAACATGTATTTTATTGTACACATTCATAAATCACA [XGTACX_site1420] | 7.19
TTATAATCTTATATATGTACATATATATATTATTAT [XGTACX_site7780] | 6.96
TACATGTATGTAATATGTTTTATTTTTTTCATCTCT [XGTACX_negctrl_site79] | 6.7
TTAATTAGAAATCATACACACATATATATATATATA [CACACA_site173] | 9.57
CATTCAAACAAAAAAAGTACTCATCACATAATATAT [XGTACX_site1251] | 7.08
GAAATGTACAAATACGTACACACATATATATATATA [CACACA_site1541] | 9.07

Sequence | gcPBM binding intensity (ln)
AAAAAAAAAAAAAAACTTACGATTTTAAAAAGATGG [GTGCAC_negctrl_site291] | 7.3
TTTATATTGTTTTATTGTACATATATATTTATACAT [XGTACX_site6821] | 7.16
ATATATTTATAATACACATGCAATGATATAATATAT [TGCATGCA_site20] | 6.87
CATATATACATATATACACACATATATATATATATA [CACACA_site645] | 9.52
GTAAGAAAGAAAGGAAGTACGTAAGAAAGTAAGAAC [XGTACX_site1239] | 7.27
GTGTGGTTACAGACACGAACACATTTTTTAAATATT [CACACA_negctrl_site83] | 6.96
TATATATATTATATAGTGCATTGAAGAAGGGGATTT | 8.42
TTTTTTTTTCTGTGAGTGCATGTAATAAAATAAATT [GTGCAC_site9740] | 9.49
CATATTTGTTGACACACACACATATTTATATAAATA [CACACA_site7648] | 7.21
TTTATATGTTTAAAATGTACATGTGGTAAAAATTTT [XGTACX_site5907] | 7.19
GGGAGGATATTACACAGTACCCAGAAAATCTACGGA [XGTACX_site2551] | 6.92
TATTCCTTATTATAATTCTTAAATAAAAAAAAAAAA [TGCATGCA_negctrl_site45] | 7.1
CCCATTATTGTTGGGGGTACAATTTTGAATATATAT [XGTACX_site2227] | 8.04
ATATATAAACTGAAGGGTACAATGAAAAAAGAACTT [XGTACX_site7219] | 7.08
TAGGATTTTTAGTTTATTGTAACTATTATTTTATTT [CACACA_negctrl_site829] | 6.72
ATAAATAAAATTAGGTGTACTTTAATTAAAGAAAAT [XGTACX_site3319] | 7.4
TATACATATATAATATGTACATATATTTTTTTTTAA [XGTACX_site2938] | 6.83
CATAAAAATATTTTCTGTACATATTCATATGACGTT [XGTACX_site3406] | 7.13
ATAAATATTGGGTGCACACACATAATATATATATAT [CACACA_site2272] | 12.2

Sequence | gcPBM binding intensity (ln)
AGGTTCCCAAAATGCACACCAATGAAATTATTTATT [CACACA_site553] | 7.21
AAAATAAAAAATATAACACACAATAAATATATATAT [CACACA_site1926] | 8.6
ATTTCCTGGCTACTGTGTACTGACCTCCAGACTGCT [XGTACX_site2005] | 6.65
TTTTAACTTTTATATTGTACGTTGTTTATTTTATTT [XGTACX_site7504] | 7
GAAAAAAAAAAAAAAAAAAAAAAATTCATTTTTTTT [XGTACX_negctrl_site54] | 6.88
ATAATCATTTGGATATTCACAATATTTAAAATTAAA [CACACA_negctrl_site909] | 6.86
TATACAAAATAACTAGCACACATATGTATAAACATA [CACACA_site9236] | 6.9
ATATGTATTAAGTGTACACATATAATGTATTTTGTT [CACACA_site4177] | 7.23
TCATAATGAAAACAAGCACACATACATAAAATAAAA [CACACA_site9069] | 7.01
TTATTTACCATCTCTACACACAAAAATTGATGTAGA [CACACA_site2811] | 6.95
TAAATTATATTATGCACACTTAAAAATATATTTAAC [CACACA_site3512] | 9.01
ATATGTAATAATAAATGTACGAAACATTGAACGATG [XGTACX_site1266] | 7.16
TTTTTATATATCACGTGTACATATTTATTTTTACTC [XGTACX_site8049] | 7.06
GAATCATCCAAAATTGCATGCAAGGAAGAAGAAAAA [TGCATGCA_site764] | 6.87
CGTATGAAACATATATGTACTTATAAAAATATAACC [XGTACX_site7539] | 7.15
TTATAAATATAATATTGTACAAAATTTTAACATGTC [XGTACX_site5259] | 6.97
CTTATGTGTATAAGTAGTACTAAATTAAAATAATAT [XGTACX_site2681] | 7.14
AAATCACCTTAAGAACGTACAAACAGAAAAAAATTA [XGTACX_site4623] | 6.92
TTTATTATATTTATATGTACTTATATAATATATGCA [XGTACX_site1906] | 7.29
